{"source": "the supplement of paper PMC7726561", "note": "In all, about 1,100 sequences were measured (“thermal melting temperature (Tm) of peptide-HLA complex”: median about 58, lowest 2% from about 42 on). This is one part of the list.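 Also: cell lysates heated 10 min at 37–73 °C, remaining pHLA pulled down with pan-class I antibody, peptides quantified by DIA-MS versus 37 °C, Tm where half the complex is lost.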"}
{"target": "HLA-A*02:01", "assay": "thermal melting temperature (Tm) of peptide-HLA complex; higher = more thermostable pHLA complex", "details": "C1R-A*02:01", "units": {"thermal melting temperature": "°C"}}
{"sequence": "FIDDANYSV", "thermal melting temperature": 60.2}
{"sequence": "FLASESLIKQI", "thermal melting temperature": 63.2}
{"sequence": "LLFDQNDKV", "thermal melting temperature": 58.6}
{"sequence": "KTLEGEFSV", "thermal melting temperature": 57.7}
{"sequence": "SLFGNIKGA", "thermal melting temperature": 57.2}
{"sequence": "FLLEKGYEV", "thermal melting temperature": 63.2}
{"sequence": "HLSIINEYL", "thermal melting temperature": 62.4}
{"sequence": "KLFDAPLSI", "thermal melting temperature": 61.6}
{"sequence": "SLNEYQPKL", "thermal melting temperature": 59.4}
{"sequence": "SLQEEKLIYV", "thermal melting temperature": 59.5}
{"sequence": "VLQDKDLFSV", "thermal melting temperature": 60.1}
{"sequence": "ALDDSRFQI", "thermal melting temperature": 57.2}
{"sequence": "FLIPIYHQV", "thermal melting temperature": 62.7}
{"sequence": "MLANDIARL", "thermal melting temperature": 56}
{"sequence": "ILNEFPGHGL", "thermal melting temperature": 57.5}
{"sequence": "SLLGGDVVSV", "thermal melting temperature": 62.7}
{"sequence": "KLMNVDPDSV", "thermal melting temperature": 53.8}
{"sequence": "SLDQPTQTV", "thermal melting temperature": 51.9}
{"sequence": "ALTDFVRSV", "thermal melting temperature": 57}
{"sequence": "SLLENIAKA", "thermal melting temperature": 60.6}
{"sequence": "SLSDTVEKL", "thermal melting temperature": 55.2}
{"sequence": "TLADVLYHV", "thermal melting temperature": 63.5}
{"sequence": "TLLAAEFLKQV", "thermal melting temperature": 62.3}
{"sequence": "QLLPSIPQL", "thermal melting temperature": 53.7}
{"sequence": "SLFSEETPVVL", "thermal melting temperature": 49.1}
{"sequence": "GLLKDIREL", "thermal melting temperature": 54}
{"sequence": "TLAGDVHIV", "thermal melting temperature": 55.9}
{"sequence": "TIPEAFRGV", "thermal melting temperature": 46.3}
{"sequence": "LLGPRLVLA", "thermal melting temperature": 49}
{"sequence": "ALYPGQLVQL", "thermal melting temperature": 58.4}
{"sequence": "NLMEQPIKV", "thermal melting temperature": 55.4}
{"sequence": "KLSDLQTQL", "thermal melting temperature": 54.1}
{"sequence": "KMLSGVGGFVL", "thermal melting temperature": 50.3}
{"sequence": "YMIGSEVGNYL", "thermal melting temperature": 48}
{"sequence": "RLYQGINQL", "thermal melting temperature": 55.9}
{"sequence": "KIFTEDLPEV", "thermal melting temperature": 61.5}
